The campaign covered roughly 44,000 compounds. About 340 (0.77%) were called active. Roughly 5% stayed inconclusive and do not appear here. Calls follow the shape of the dose curve; as a rule, active = well fitted inhibition curve with a large enough effect; inconclusive = small, poorly fitted or top-dose-only effect; inactive = flat fitted curve, though single readings scatter. The list shows a part of the results.
Assay: Acumen qHTS Assay for Inhibitors of the mTORC1 Signaling Pathway in MEF (Tsc2-/-, p53-/-) Cells: Sytravon;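 also: plate controls were DMSO for no effect and rapamycin for full effect; nearly all actives have a fitted effect of over 50% in size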
Details: phospho-rpS6 immunofluorescence/PI, 24 h; series mostly up to 38.3 µM; activity change, negative = inhibition: at the top concentration
Procedure, shortened: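 Tsc2-/-, p53-/- MEFs (empty-vector stable line) in DMEM + 10% FBS were treated with compounds 24 h at 37 degree Celsius, fixed, and immunostained for phospho-rpS6 (Alexa-488) with propidium iodide counterstain. Laser-scanning cytometry gave % positive cells, normalized against 7.5 nM rapamycin and DMSO.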

Activity change, negative = inhibition, inactive:
Cc1ccc(-n2c(=O)c3c(cnn3C)n(CC(=O)Nc3ccc(C)cc3C)c2=O)cc1 7.83%, CN(c1ccc(F)cc1)S(=O)(=O)N1CCCC(C(=O)NCc2cccc(Br)c2)C1 (stereo not drawn) -20.7%, Cc1ccccc1Cc1c(C)nc2nc(SCC(=O)N(C)c3ccccc3)nn2c1C 8.68%, Cc1c(C(=O)N2CCC(C)CC2)c(S(=O)(=O)NCc2ccc(Cl)cc2)c(C)n1C 0%, CCN(CC)c1ccc2cc(-c3nc(-c4cccs4)no3)c(=O)oc2c1 4.13%, CC(=O)c1ccc(N2CCN(C(=O)CCC(=O)Nc3ccc4nc(N5CCCCC5)cc(C)c4c3)CC2)cc1 -8.12%, CC1CCN(S(=O)(=O)c2ccc3c(c2)c(=O)c(C(=O)NCCc2ccccc2)cn3C)CC1 -3.92%, COc1ccc(S(=O)(=O)NCCc2csc3nc(-c4cccc(C)c4)nn23)cc1F -9.05%, CCCCN1C(=O)c2[nH]nc(-c3ccccc3O)c2C1c1ccc(OCc2ccccc2)cc1 (stereo not drawn) -6.25%, COc1ccccc1NC(=O)CSc1nnc(NC(=O)Nc2ccc(C)cc2)s1 -19.2%, CN(C)CCNC(=O)c1ccc2c(c1)NC(=O)C(CS(=O)(=O)Cc1cccc(Br)c1)N2 (stereo not drawn) 0.31%, Cc1ccc(S(=O)(=O)N2CCCc3cc(NS(=O)(=O)c4cccc(Cl)c4)ccc32)cc1 4.16%, COc1ccccc1CNC(=O)c1c(O)nc2c(C)cccn2c1=O 5%, CCc1ccc(NC(=O)C2CCCN2S(=O)(=O)c2ccc3c(c2)n(C)c(=O)c(=O)n3C)cc1 (stereo not drawn) -11.1%, COc1ccccc1CNC(=O)CN(C)c1nn2c(=O)cc(C)nc2s1 1.7%, COc1ccc2c(c1)cc1c(=O)n(CC(=O)NC(C)C)nc(C)n12 -6.99%, CC(=O)c1ccc(NC(=O)CSc2nnc3ccc(-c4ccc(Br)cc4)nn23)cc1 -0.499%, COc1ccccc1NC(=O)CCC(=O)N1CC(C)Oc2ccc(C)cc21 (stereo not drawn) -7.46%, Cc1nn(-c2ccccc2)c2c1cc1c(=O)[nH]c(=O)nc-1n2-c1cccc(Cl)c1 0.242%, COc1ccccc1NC(=O)CSc1nnc(NC(=O)NC2CCCCC2)s1 -10.7%, Cc1ccc(CNC(=O)C2CCN(S(=O)(=O)c3cccc4nonc34)CC2)cc1 3.71%, Cc1cc(=O)c2cc(C(=O)Nc3ccc(C)c(C)c3)ccc2[nH]1 -1.46%, Cc1ccc2oc(C(=O)Nc3ccc(S(=O)(=O)N(C)c4ccccc4)cc3)cc(=O)c2c1 4.06%, CCc1ccc(NCc2cc3cc4c(cc3n(CC(=O)Nc3ccccc3OC)c2=O)OCCO4)cc1 -1.6%, Cc1cc(NC(=O)Nc2nnc(N(C)C3CCCCC3)s2)ccc1Br 1.2%, COc1ccc(C(=O)N2CCC(c3nc4ccccc4s3)CC2)cc1Cl -0.603%, Cc1ccc(S(=O)(=O)CCC(=O)Nc2ccc(OC(F)(F)F)cc2)cc1 2.98%, CCc1ccccc1NC(=O)Cn1c(=O)n(CCCCCC(=O)NCc2ccc(C)cc2)c(=O)c2sccc21 0.87%, O=C(c1ccc2c(c1)N(Cc1ccccc1F)C(=O)c1ccccc1S2(=O)=O)N1CCc2ccccc21 -2.63%, CCC(Sc1nc2ccncc2[nH]1)C(=O)Nc1cc(Cl)ccc1C (stereo not drawn) -8.69%, COc1cc(Cl)c(C)cc1NC(=O)CSc1nc2c(c(=O)[nH]1)CCC2 -2.47%, CCc1ccc(S(=O)(=O)c2nnn3c2nc(N2CCOCC2)c2sccc23)cc1 2.53%, CCOC(=O)c1cccc(NC(=O)CC2C(=O)N(c3ccc(Cl)cc3)C(=O)N2C2CCCC2)c1 (stereo not drawn) -8.8%, Cc1ccc(N2CC(c3nc(-c4ccc(Cl)cc4)no3)CC2=O)cc1F (stereo not drawn) 0%, Cc1cc(N2CCC(C(=O)Nc3ccc(F)cc3C)CC2)n2nc(C)c(-c3ccc(Cl)cc3)c2n1 -24.3%, Cc1cc(-c2ccccc2)n2nc(-c3ccc(Cl)cc3)cc2n1 -0.225%, Cc1cc(Br)ccc1NC(=O)C1CCCN(S(=O)(=O)c2cccc3nonc23)C1 (stereo not drawn) -16.2%, COc1ccc2cc3cc(C(=O)Nc4cc(C)c(Cl)cc4OC)oc3nc2c1 -3.47%, CC(=O)c1cccc(NS(=O)(=O)c2cc(-c3onc(C)c3C)ccc2C)c1 -13.9%, COc1ccc(NC(=O)CSc2oc(-c3ccc(F)cc3)nc2S(=O)(=O)c2ccc(C)cc2)c(OC)c1 -1.04%, Cc1sc2c(c1C)c(=O)n(-c1ccc(Cl)cc1)c(=O)n2Cc1cc(=O)n2cc(Br)ccc2n1 4.49%, COc1cc(Cl)c(NC(=O)c2cc(S(=O)(=O)N3CCCCC3)c[nH]2)c(OC)c1 -2.74%, CCOc1ccccc1NC(=O)CSc1nc2c(sc3ccccc32)c(=O)n1CCCC(=O)NC1CCCC1 -7.69%, COc1cc(NC(=O)C2CCN(S(=O)(=O)c3ccc4c(c3)CCCC(=O)N4)CC2)cc(OC)c1 -13.6%, CCOC(=O)c1c(S(=O)(=O)N2CCCC(C(=O)NCc3ccccc3Cl)C2)c(C)n(C)c1C (stereo not drawn) -11.7%, COc1cccc(CNC(=O)c2ccc(CNS(=O)(=O)c3ccc(C)cc3)cc2)c1 0.619%, CCN(c1ccccc1)S(=O)(=O)c1nnc(NC(=O)c2ccccc2)s1 6.27%, O=C(Nc1ccccc1)N(Cc1c[nH]c2ccccc12)C1CCCCCC1 -12.4%, Cc1cccc(OCc2nc(CC(=O)Nc3ccc(C)cc3C)cs2)c1 -2.13%, Cc1cccc(N2CCN(C(=O)c3cnn(-c4ccccc4Cl)c3C3CCN(C(=O)OC(C)(C)C)CC3)CC2C)c1 (stereo not drawn) 6.85%, COc1ccc(S(=O)(=O)NCCc2sc(-c3cccnc3)nc2C)c(F)c1 -7.35%, CCc1ccc(C2c3c(oc4ccc(F)cc4c3=O)C(=O)N2CCc2ccc(OC)cc2)cc1 (stereo not drawn) 13.2%, CC1CCc2c(sc3nnn(CCCCOc4ccc(Cl)cc4)c(=O)c23)C1 (stereo not drawn) -2.43%, COc1ccc(CNCCCSc2nnnn2-c2ccccc2)cc1 0.452%, CCOC(=O)c1c(NC(=O)c2cc(OCC)c(OCC)c(OCC)c2)sc2c1CCCCC2 1.04%, Cc1ccc(CNC(=O)Cn2c(=O)ccc3cc(S(=O)(=O)N4CCC(C)CC4)ccc32)cc1 -12.5%, COc1ccc(-c2cc(C(=O)NC(C)c3ccccc3)c3cc(C(C)C)ccc3n2)cc1 (stereo not drawn) 11.5%, CCN(CC)CCNC(=O)C(=O)NCC(c1cccnc1)N1CCN(c2ccc(F)cc2)CC1 (stereo not drawn) 3.44%, O=C(Nc1ccccc1C(F)(F)F)c1cc(-c2ccc3c(c2)OCCO3)on1 -1.14%, Cc1c(Cl)cccc1NC(=O)CNS(=O)(=O)c1cccs1 -1.2%, Cc1nc2sccn2c(=O)c1S(=O)(=O)Nc1ccc(N2CCOCC2)cc1 -4.73%, Cc1ccc(C2CCN(C(=O)Nc3ccc(Cl)cc3)C2)cc1 (stereo not drawn) 0.579%, Cc1cc(=O)[nH]c2nnc(SCc3c(F)cccc3Cl)n12 -1.69%, CCOc1ccc2c(c1)sc1nc(=O)n(-c3ccc(Cl)c(Cl)c3)c(=O)n12 8.54%, Cc1ccc(OCc2nc(-c3ccc(C(=O)N4CCN(c5cccc(C(F)(F)F)c5)CC4)cc3)oc2C)cc1 -0.865%, CSc1cccc(NC(=O)C2CCN(S(=O)(=O)c3ccc4c(c3)CCCN4C(=O)C3CCC3)CC2)c1 -10.2%, COc1ccc(N(CC(C)C)S(=O)(=O)c2nnc(NC(=O)c3cccs3)s2)cc1 -8.69%, Cc1cccc(NC(=O)c2ccc3c(O)c(S(=O)(=O)c4ccccc4)c(=O)[nH]c3c2)c1C 0.835%, Cc1ccccc1-c1nc(CS(=O)(=O)CC(=O)NCCc2ccccc2)c(C)o1 -0.942%, O=C(Nc1ccc2nc(SCC(=O)N3CCc4ccccc43)sc2c1)c1cccc(F)c1 -10.4%, COc1ccc(Cl)cc1NC(=O)CSc1nc2ccccc2c2nc(-c3ccccc3)nn12 -10.8%, Cc1ccc(C(=O)Nc2ccccc2)cc1S(=O)(=O)Nc1ccc(Br)cc1 8.37%, COCCNC(=O)CCn1c(=O)c2cc(OC)c(OC)cc2n(CC(=O)Nc2ccccc2C)c1=O 3.96%, CS(=O)(=O)NCC(c1ccco1)N1CCN(c2ccc(F)cc2)CC1 (stereo not drawn) -2.43%, O=S(=O)(c1ccc(-c2cc(C(F)(F)F)on2)s1)N1CCN(c2ccccc2)CC1 0%, COc1ccc(S(=O)(=O)N2CCN(Cc3ccc4c(c3)OCO4)CC2)cc1C -5.37%, Cc1cccc(C)c1NC(=O)C(=O)NCC(c1ccc2c(c1)OCO2)N1CCOCC1 (stereo not drawn) 0.54%, CCc1ccccc1NC(=O)Nc1cc(C(=O)NCc2cccc(F)c2)ccc1N1CCCC1 4.01%, CCOC(=O)c1c(NC(=O)COc2ccc(Br)cc2)sc2c1CCCC2 -14.4%, O=C(Cn1ncn2nc(-c3cccs3)cc2c1=O)NCc1ccc(Cl)cc1 -0.463%, CCc1ccc(S(=O)(=O)c2nnn3c2nc(Nc2ccc(C)c(Cl)c2)c2sccc23)cc1 0.19%, Cc1oc(-c2cccc(Cl)c2)nc1CN1CCCC(C(=O)NCCc2ccc(Cl)cc2)C1 (stereo not drawn) 0.436%, CCn1c(SCc2cccc(Br)c2)nnc1-c1nonc1NC(C)=O -15%, CC(C)CNC(=O)C(=O)Nc1c2c(nn1-c1ccccc1)CS(=O)(=O)C2 1.91%, CSc1cccc(NC(=O)Cn2c(=O)n(Cc3ccccc3)c(=O)c3sc4ccccc4c32)c1 -13.6%, CC(=O)Nc1cc(C(=O)NCc2ccc(C)cc2)ccc1S(=O)(=O)c1ccc(Cl)cc1 13.3%, CCOC(=O)CN1C(C(=O)c2ccccc2)=C(OC(=O)C(C)(C)C)c2ccccc2S1(=O)=O -3.58%, Cc1cc(C)n(-c2nc3cc(Cl)ccc3nc2Nc2ccc(C)c(F)c2)n1 -0.266%, CCn1ccc2cc(S(=O)(=O)N3CCC(C(=O)NCc4cccc(Cl)c4)CC3)ccc21 0%, Cc1cccc(-n2ncc(C(=O)N3CCN(Cc4ccccc4)CC3)c2C2CCN(C(=O)OC(C)(C)C)CC2)c1 -25.7%, CCOc1ccc(N(C)S(=O)(=O)c2c(C(=O)N3CCC(C)CC3)c(C)n(C)c2C)cc1 0%, COc1ccc(Cn2c(CCC(=O)Nc3ccc(C)cc3)nc3cccnc32)cc1 -10%, Cc1ccc(NC(=O)Cn2nnc3sc4c(c3c2=O)CCC(C)C4)cc1 (stereo not drawn) 4.02%

Source: PubChem BioAssay AID493208 (National Center for Advancing Translational Sciences (NCATS), 2011)
